Measurements: PubChem BioAssay AID662 (National Center for Advancing Translational Sciences (NCATS), 2007)
In all, about 71,000 compounds went through this assay and about 1,800 (2.5%) were called active. Inconclusive results, whose numbers are uncertain, are shown with a selection of clear calls. The call rests on the fitted dose curve; in most records, active means well fitted activation curve with a large enough effect in the signal ratio, with a control signal flat (not every such curve was filed as active); inconclusive means small, poorly fitted or top-dose-only effect, or effect the other way, or a change in a side signal; inactive means flat fitted curve, though single readings scatter; the % refers to the signal ratio. Where the call is inconclusive, the potency comes from a doubtful curve fit.

Test: Cell signaling CRE-BLA (Fsk stim); on activity change, negative = inhibition: % of control where 0% means no effect
Conditions: CHO CRE-bla reporter (cAMP response element driving beta-lactamase), forskolin EC10, beta-lactamase ratio; activity change, negative = inhibition: at 38.2 µM (top of the series) unless noted
Outline: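 CRE-bla CHO cells stimulated with EC10 NKH 477 (water-soluble forskolin) and compound titrations, 3 h at 37C; beta-lactamase read with CCF4 after 2 h at room temperature. Activity from 460/530 nm emission ratio, AC50 values for positive or negative modulation.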
Potency means the concentration at half of the fitted maximal effect; tags describe the fitted curve by direction and shape.

| Structure (SMILES) | activity change, negative = inhibition | Potency |
| --- | --- | --- |
| O=C1c2ccccc2C(=O)N1Cc1nc(-c2ccccc2)no1 | inconclusive: 11.4% |  |
| COc1ccc(-c2nc3cnc(N4CCNCC4)nc3n(Cc3ccc(F)cc3)c2=O)cc1 |  | inconclusive: 10 µM [rising, partial curve] |
| Cc1ccc2cc(CCNC(=O)CC(C)C)c(=O)[nH]c2c1 |  | inconclusive: 10 µM [rising, partial curve] |
| CCOC(=O)C1=C(C)Nc2nnnn2C1c1ccc(OC)c(Br)c1 (stereo not drawn) | inactive |  |
| Cc1ccc(Cn2nnc3c(=O)n(Cc4ccccc4C)cnc32)cc1 | inactive |  |
| C=CCn1c(SCc2nc3ccccc3[nH]2)nnc1-c1ccncc1 |  | inconclusive: 3.16 µM [rising, full curve] |
| Cc1cccc(-n2nc3c(c2NC(=O)c2ccco2)CSC3)c1C |  | inconclusive: 12.6 µM [falling, partial curve] |
| C=CCn1c(SCC(=O)N2CCOCC2)nc(O)c(Cc2ccccc2)c1=O | inactive |  |
| Cc1ccc(CNC(=O)c2cn(C3CCCC3)c(=O)c3c2c2ccccc2n3C)o1 |  | inconclusive: 10 µM [rising, partial curve] |
| Cn1c(=O)[nH]c(=O)c2c1nc(Br)n2CC(O)c1ccccc1 (stereo not drawn) | inactive |  |
| CCOC(=O)c1c(C)n(C)c2cc(OCCN(CC)CC)ccc12 | inconclusive: 15.8% |  |
| CC1(C)[C@@H](CC(=O)O)CCC[C@@H]1CC(=O)O | inactive: 4.34% [at 7.6 µM] |  |
| CC1(C)Oc2ccc3ccc(=O)oc3c2/C(=C/Nc2ccccn2)C1=O |  | inconclusive: 12.6 µM [rising, single point] |
| NCCCNCCSP(=O)(O)O | inactive |  |
| O=C(NC1(C(=O)NC2CCCC2)CCCCC1)c1ccc2c(c1)OCO2 | inconclusive: 4.37% |  |
| CCN(CC)c1ccc2cc(C(=O)Nc3cccnc3N3CCOCC3)c(=O)oc2c1 |  | inconclusive: 10 µM [rising, single point] |
| N#Cc1cccc(-c2nc3cnc(N4CCOCC4)nc3n(C3CC3)c2=O)c1 |  | active: 2 µM |
| CCCCCCN(C(=O)CCCCCN1C(=O)NC(C2CC2)C(C(=O)OCc2ccccc2)=C1C)C(C(=O)NCCCC)c1ccc(OCC(=O)OC)c(C(=O)OC)c1 (stereo not drawn) | inactive |  |
| Fc1ccc(-c2nnc3ccc(N4CCc5ccccc5C4)nn23)cc1 |  | inconclusive: 12.6 µM [rising, partial curve] |
| Cc1nc(SC2CC(=O)N(c3ccccc3)C2=O)nc2c1CCCC2 (stereo not drawn) | inconclusive: 4.02% |  |
| c1ccc(Nc2ncnc3ccc(-c4cccnc4)cc23)cc1 |  | inconclusive: 10 µM [rising, partial curve] |
| O=C(c1ccc(NS(=O)(=O)c2cccc3cccnc23)cc1)N1CCOCC1 | inconclusive: 28.9% |  |
| Cc1cc2cc(CCNC(=O)CC(C)C)c(=O)[nH]c2cc1C |  | active: 12.6 µM |
| Cn1c(=O)c2c(nc(SCc3ccccn3)n2C)n(C)c1=O | inconclusive: 20.1% |  |
| CCC(C)n1cnc2c(c1=O)c1nc3ccccc3nc1n2-c1ccc2c(c1)OCCO2 (stereo not drawn) | inconclusive: 26.2% |  |
| Cc1cc(NC(=O)c2ccc(S(=O)(=O)N3CCOCC3)cc2)nc2c1c(=O)oc1ccccc12 |  | inconclusive: 10 µM [rising, partial curve] |
| COc1ccccc1C(=O)N1CCN(c2cccc(Cl)c2)CC1 | inactive |  |

| Structure (SMILES) | activity change, negative = inhibition | Potency |
| --- | --- | --- |
| CC(C)OC(=O)c1c(F)c(F)c(N2CCOCC2)c(F)c1F | inactive |  |
| CC1=CCC(C(C)(C)NC(=O)c2ccccc2)C/C1=N\O (stereo not drawn) | inconclusive: 2.33% [at 7.6 µM] |  |
| O=C(CSc1nnc(-c2ccco2)n1Cc1ccccc1)OC1CCCCC1 | inconclusive: 15.2% |  |
| CC[C@]1(c2ncc[nH]2)Cc2ccccc2O1 | inactive |  |
| Cc1cccc(-c2cc3nc4c(c(N5CCC6(CC5)OCCO6)n3n2)CCCC4)c1 | inconclusive: 14.4% |  |
| CCCN1C[C@H](CSC)C[C@H]2c3cccc4[nH]cc(c34)C[C@@H]21 | inactive |  |
| COCCN(CCOC)c1nc(C)nc2c1nc(-c1ccccc1)n2CCN1CCOCC1 |  | active: 12.6 µM |
| COc1ccc(C(=O)N2CCC3(CC2)CN(C(=O)Nc2cccc(C#N)c2)C3)cc1 | inactive |  |
| O=C1C2C3C=CC(CO)(O3)C2C(=O)N1c1ccc(-c2ccccc2)cc1 (stereo not drawn) | inconclusive: -27.1% |  |
| Cc1cc(C)n2nc(SCC(=O)NCc3ccco3)nc2n1 | inconclusive: -2.43% |  |
| COc1nc2c(C)cccc2cc1-c1noc(-c2ccco2)n1 | inactive |  |
| Cc1noc(C)c1C(=O)Nc1sc(C)c(-c2ccccc2)c1C#N |  | inconclusive: 10 µM [rising, partial curve] |
| COc1cc(-c2nnc(SCC(=O)N3CCCC3)o2)cc(OC)c1OC |  | inconclusive: 12.6 µM [rising, partial curve] |
| O=C(NCC12CC3CC(CC(C3)C1)C2)c1cc2n(n1)C(C(F)(F)F)CC(c1ccco1)N2 (stereo not drawn) |  | inconclusive: 25.1 µM [rising, single point] |
| CCOc1cc(C(=O)Nc2ccc3c(c2)OCO3)ccc1OC(F)F | inactive |  |
| Cn1nc(-c2ccc(Cl)cc2)c2cc(C(=O)NCCCN3CCCC3)sc21 | inconclusive: 28.3% |  |
| O=C(NC(=O)c1ccccc1)NC1(C(F)(F)F)OCCO1 | inactive |  |
| CCn1c2ccccc2c2cc(NC(=O)CSc3nnc(-c4ccccc4OC)n3N)ccc21 | inconclusive: -0.288% |  |
| CC1(C)CC(=O)C=C(Nc2ccccn2)C1 | inconclusive: 16.2% [cytotoxic] |  |
| Cc1cc(C)n2c(SC/C(O)=C(\C#N)c3nc4ccccc4[nH]3)nnc2n1 | inactive |  |
| Cc1cc2oc(=O)cc(CN3CCN(Cc4ccccc4)CC3)c2cc1Cl | inactive |  |
| COc1ccc(OC)c(C(=O)c2coc3ccc(O)c(CN4CCOCC4)c23)c1 | inconclusive: 10.6% |  |
| COc1ccc(-c2nnc(SCC#CCO)o2)cc1OC |  | inconclusive: 25.1 µM [rising, single point] |
| CCN(CCCCOC(=O)c1ccc(OC)c(OC)c1)[C@@H](C)Cc1ccc(OC)cc1 | inactive |  |
| Cc1ccc(NCN2C(=O)C3C4C=CC(C4)C3C2=O)cc1 (stereo not drawn) | inconclusive: 8.53% [at 7.6 µM] |  |
| O=C(NCCc1ccccc1)C1CCN(S(=O)(=O)N2CCC3(CC2)OCCO3)CC1 | inconclusive: -18% |  |
